# Experimental data reported in the supplement of paper PMC8728848.
# Some of the results follow.
# B1: CwpV (Clostridium difficile), B6EFG6 (protein)
# chain: MKIPKKIAAMLTVTMIAGSSTAGIASAQTVATNLTGQERYETAVKISQDGWKNADEVVIVNDSSIADALSATPFAKAKNAPILLTSKDKLNDKTKAEIQRLKAKKVYLIGGTSVLSTNIEKEIKDLKISFERISGAERYQTSLELAKKLDAISDVKKIAVVNGEKGLADAVSVGAPAAQNNMPVILADSKNGTAVADKFIKDAGITQSYVVGGESSISEAVKNKLPNSTRLGGTDRNDTNAKVIKEFYKKTDLKNAYVTKDGMNKQDQLIDALAVGVLGAKNQSPVVLVGKNLSASQKSLVNSKSFDKITKVGGNGNETAFNEMKSLQEVKTVEAKTISELKSAIDKATANDVINFKPTSEVKEAFTIQTDKAVTVNLNGTYTKTVTINMPNGDVNNYAKVDDVVIDDVKDGTFVNYGKITNLKVNDKNGAKIENNSKGEIGSLTVASGASQVKVTNGGKITTVTNNSKGTTIDNKGTISSVKGDNSPTISGNSPSSNSSGGSSSSGGSSGGSSGGSSSSKVGQIKFSATDKQIKMASGDKTVDPSDNTYILKLTNGTVKDGDVKANVKVAGLPSGLDYTAVGNRSANTITITVSGTTSQSIQNDLNNVSVLVKAGAVSGTGATDSIANTTFEIKKYVAAPAVGQLTFDATDKQIKMASGDKTVDPSDDTYVLTLTKGTAKDGDIKANVEVTGLPSGLDYTAEGDSSANTITIPVSGTASPAVQTDLDNVSVLVKAGAVSETTATDSAANATFEVKKYVAPAVGQLTFDATDKQIKMASGDKTVDPSDDTYVLTLTKGTAKDGDIKANVEVTGLPSGLDYTAEGDSSANTITITVSGTASQAVQTDLDNVSVLVKAGAVSETTATDSAANATFEVKKYVAPAIGQLTFDATDKQIKMASGDKTVDPSDDTYVLTLTKGTAKDGDIKANVEVTGLPSGLDYTAEGDSSANTITITVSGTASQAVQTDLDNVSVLVKAGAVSETTATDSAANATFEVKKHASDPISTIGKISSGLSSLFNILK
# Assays:
# Assay in all cases: glycan array binding signal (z-score within array); higher = stronger binding
# Settings in all cases: glycan notation: IUPAC condensed, linker removed
# [1] = molecular target: Fuc(a1-2)[GalNAc(a1-3)]Gal(b1-4)GlcNAc(b1-3)GalNAc
# How it was run: (§1)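 Negative Z-scores can be read as non-binding. The Z-score is calculated within each array and then averaged across arrays of one protein sequence at different concentrations or buffers and across linkers. Arrays, 3228 in all, were curated from the Consortium for Functional Glycomics database and kept only where the protein sequence was available.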
# [2] = molecular target: Fuc(a1-2)[GalNAc(a1-3)]Gal(b1-4)[Fuc(a1-3)]GlcNAc
# How it was run: as §1
# [3] = molecular target: Fuc(a1-2)[GalNAc(a1-3)]Gal(b1-4)[Fuc(a1-3)]GlcNAc(b1-3)GalNAc
# How it was run: as §1
# [4] = molecular target: Fuc(a1-2)[GalNAc(a1-4)]Gal(b1-4)GlcNAc
# How it was run: as §1
# [5] = molecular target: Fuc(a1-2)[GalNAc(b1-3)]Gal
# How it was run: as §1
# Fuc(a1-3)GlcNAc = molecular target: Fuc(a1-3)GlcNAc
# How it was run: as §1
# [6] = molecular target: Fuc(a1-3)[Gal(b1-4)]Glc6S
# How it was run: as §1
# [7] = molecular target: Fuc(a1-3)[Gal(b1-4)]GlcNAc
# How it was run: as §1
# [8] = molecular target: Fuc(a1-3)[Gal(b1-4)]GlcNAc(b1-2)Man(a1-3)[Fuc(a1-3)[Gal(b1-4)]GlcNAc(b1-2)Man(a1-6)]Man(b1-4)GlcNAc(b1-4)GlcNAc
# How it was run: as §1
# [9] = molecular target: Fuc(a1-3)[Gal(b1-4)]GlcNAc(b1-2)Man(a1-3)[Fuc(a1-3)[Gal(b1-4)]GlcNAc(b1-2)Man(a1-6)]Man(b1-4)GlcNAc(b1-4)[Fuc(a1-6)]GlcNAc
# How it was run: as §1
# [10] = molecular target: Fuc(a1-3)[Gal(b1-4)]GlcNAc(b1-3)Gal(b1-3)[Fuc(a1-4)]GlcNAc
# How it was run: as §1
# [11] = molecular target: Fuc(a1-3)[Gal(b1-4)]GlcNAc(b1-3)GalNAc
# How it was run: as §1
# [12] = molecular target: Fuc(a1-3)[Gal(b1-4)]GlcNAc(b1-4)Gal(b1-4)[Fuc(a1-3)]GlcNAc
# How it was run: as §1
# [13] = molecular target: Fuc(a1-3)[Gal(b1-4)]GlcNAc(b1-4)Gal(b1-4)[Fuc(a1-3)]GlcNAc(b1-4)Gal(b1-4)[Fuc(a1-3)]GlcNAc
# How it was run: as §1
# [14] = molecular target: Fuc(a1-3)[Gal(b1-4)]GlcNAc(b1-6)[Gal(b1-3)GlcNAc(b1-3)]Gal(b1-4)Glc
# How it was run: as §1
# [15] = molecular target: Fuc(a1-3)[Gal(b1-4)]GlcNAc6S
# How it was run: as §1
# [16] = molecular target: Fuc(a1-3)[Gal3S(b1-4)]GlcNAc
# How it was run: as §1
# [17] = molecular target: Fuc(a1-3)[Gal3S(b1-4)]GlcNAc6S
# How it was run: as §1
# [18] = molecular target: Fuc(a1-3)[GalNAc(b1-4)]GlcNAc
# How it was run: as §1
# Fuc(a1-4)GlcNAc = molecular target: Fuc(a1-4)GlcNAc
# How it was run: as §1
# Fuc(b1-3)GlcNAc = molecular target: Fuc(b1-3)GlcNAc
# How it was run: as §1
# Gal(a1-2)Gal = molecular target: Gal(a1-2)Gal
# How it was run: as §1
# Gal(a1-3)Gal = molecular target: Gal(a1-3)Gal
# How it was run: as §1
# Gal(a1-3)Gal(b1-3)GlcNAc = molecular target: Gal(a1-3)Gal(b1-3)GlcNAc
# How it was run: as §1
# [19] = molecular target: Gal(a1-3)Gal(b1-3)GlcNAc(b1-2)Man(a1-3)[Gal(a1-3)Gal(b1-3)GlcNAc(b1-2)Man(a1-6)]Man(b1-4)GlcNAc(b1-4)GlcNAc
# How it was run: as §1
# [20] = molecular target: Gal(a1-3)Gal(b1-3)GlcNAc(b1-3)GalNAc
# How it was run: as §1
# [21] = molecular target: Gal(a1-3)Gal(b1-3)[Fuc(a1-4)]GlcNAc(b1-2)Man(a1-3)[Gal(a1-3)Gal(b1-3)[Fuc(a1-4)]GlcNAc(b1-2)Man(a1-6)]Man(b1-4)GlcNAc(b1-4)GlcNAc
# How it was run: as §1
# Gal(a1-3)Gal(b1-4)Glc = molecular target: Gal(a1-3)Gal(b1-4)Glc
# How it was run: as §1
# Gal(a1-3)Gal(b1-4)GlcNAc = molecular target: Gal(a1-3)Gal(b1-4)GlcNAc
# How it was run: as §1
# [22] = molecular target: Gal(a1-3)Gal(b1-4)GlcNAc(b1-3)GalNAc
# How it was run: as §1
binder,measurement,setting,value
B1,glycan array binding signal (z-score),[1],0.006
same,glycan array binding signal (z-score),[2],-0.106
same,glycan array binding signal (z-score),[3],0.501
same,glycan array binding signal (z-score),[4],0.344
same,glycan array binding signal (z-score),[5],-0.249
same,glycan array binding signal (z-score),Fuc(a1-3)GlcNAc,-0.277
same,glycan array binding signal (z-score),[6],-0.148
same,glycan array binding signal (z-score),[7],-0.247
same,glycan array binding signal (z-score),[8],-0.175
same,glycan array binding signal (z-score),[9],0.011
same,glycan array binding signal (z-score),[10],-0.336
same,glycan array binding signal (z-score),[11],0.07
same,glycan array binding signal (z-score),[12],0.31
same,glycan array binding signal (z-score),[13],0.405
same,glycan array binding signal (z-score),[14],-0.298
same,glycan array binding signal (z-score),[15],0.248
same,glycan array binding signal (z-score),[16],-0.307
same,glycan array binding signal (z-score),[17],0.503
same,glycan array binding signal (z-score),[18],-0.291
same,glycan array binding signal (z-score),Fuc(a1-4)GlcNAc,-0.3
same,glycan array binding signal (z-score),Fuc(b1-3)GlcNAc,-0.338
same,glycan array binding signal (z-score),Gal(a1-2)Gal,-0.332
same,glycan array binding signal (z-score),Gal(a1-3)Gal,-0.326
same,glycan array binding signal (z-score),Gal(a1-3)Gal(b1-3)GlcNAc,-0.254
same,glycan array binding signal (z-score),[19],0.365
same,glycan array binding signal (z-score),[20],0.556
same,glycan array binding signal (z-score),[21],0.538
same,glycan array binding signal (z-score),Gal(a1-3)Gal(b1-4)Glc,-0.314
same,glycan array binding signal (z-score),Gal(a1-3)Gal(b1-4)GlcNAc,-0.273
same,glycan array binding signal (z-score),[22],-0.283
